# Data from PubChem BioAssay AID485294 (National Center for Advancing Translational Sciences (NCATS), 2010).
# In all, about 370,000 compounds went through this assay and about 150 (0.041%) were called active. Inconclusive means that the source gave no clear call. Such entries were picked first, then a sample of the others. The call rests on the fitted dose curve; in most records, active means well fitted inhibition curve with a large enough effect; inconclusive means small, poorly fitted or top-dose-only effect; inactive means flat fitted curve, though single readings scatter. No potency is given beside an inconclusive call; the fits are too rough.
# Molecular target: Beta-lactamase (Escherichia coli (strain K12)) (UniProt P00811)
# UniProt P00811, sequence (P00811 whole entry, looked up): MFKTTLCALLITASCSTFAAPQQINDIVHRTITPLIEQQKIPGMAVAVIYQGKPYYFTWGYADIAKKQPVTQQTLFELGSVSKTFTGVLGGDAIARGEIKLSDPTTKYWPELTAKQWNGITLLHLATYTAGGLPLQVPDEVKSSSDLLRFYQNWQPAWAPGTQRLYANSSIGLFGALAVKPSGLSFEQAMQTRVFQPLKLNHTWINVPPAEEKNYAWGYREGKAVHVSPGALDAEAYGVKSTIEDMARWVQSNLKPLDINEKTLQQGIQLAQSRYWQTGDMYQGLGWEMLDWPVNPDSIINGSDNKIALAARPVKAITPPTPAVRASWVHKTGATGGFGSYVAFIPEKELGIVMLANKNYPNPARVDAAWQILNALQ
# Assay: qHTS Inhibitors of AmpC Beta-Lactamase (assay with detergent); further: nearly all actives have a fitted effect of over 25% in size
# Conditions: AmpC hydrolysis of nitrocefin, absorbance 480 nm, 0.01% Triton; series mostly up to 114 µM
# Outline: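 AmpC (5.3 nM in the dispensed reagent) in 20 mM phosphate pH 7.0 with 0.01% (detergent screen) or 0.0001% Triton X-100 was preincubated with compounds for 15 min at room temperature. Nitrocefin was then added from an 800 uM solution, and hydrolysis was followed at 480 nm.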
# Potency means the concentration at half of the fitted maximal effect; tags describe the fitted curve by direction and shape.
row,Structure (SMILES),Potency
1,CCOc1ccc(Nc2nc(Cc3nnc(SCC(=O)NCc4ccco4)n3CC)cs2)cc1,"inconclusive [inhibitor, full curve]"
2,CCC(=O)NCc1ccc(-c2nc3ncccc3o2)cc1,inactive
3,CCCCCn1c(=O)c(C(=O)NCc2ccccc2Cl)c(O)c2ccccc21,"inconclusive [inhibitor, full curve]"
4,COc1cccc(/C=C/C(=O)Nc2cc(S(=O)(=O)N3CCOCC3)ccc2OC)c1,"inconclusive [inhibitor, partial curve, poor fit]"
5,CC(C)(C)OC(=O)NCc1ccc(CNC(=O)c2[nH]cnc2C(=O)N[C@@H](Cc2ccccc2)C(=O)OC(C)(C)C)cc1,"inconclusive [inhibitor, partial curve, poor fit]"
6,O=S(=O)(c1cccc(C(F)(F)F)c1)N1CCN(C(=S)NCc2ccco2)CC1,"inconclusive [inhibitor, single point]"
7,COc1ccc(CNC(=O)CCSc2nc(-c3ccc4c(c3)OCO4)cc(C(F)(F)F)n2)cc1,"inconclusive [inhibitor, full curve, poor fit]"
8,CCOC(=O)/C(C#N)=C/c1cn(CCC(=O)O)nc1-c1ccc(OC)cc1,"inconclusive [inhibitor, full curve, poor fit]"
9,CCN1C(=O)[C@H]2[C@@H](c3ccc(-c4ccc5c(c4)OCO5)cc3)N3CCC[C@@]3(C(=O)OC)[C@H]2C1=O,"inconclusive [inhibitor, single point]"
10,Cn1nnnc1SCC(=O)Nc1ccccc1Cl,"inconclusive [inhibitor, full curve, poor fit]"
11,O=C(Nc1ccc(S(=O)(=O)Nc2ncccn2)cc1)c1cc(=O)c2ccccc2o1,inactive
12,Cc1c(NC(=O)C2CCN(S(=O)(=O)c3ccccc3)CC2)c(=O)n(-c2ccccc2)n1C,"inconclusive [inhibitor, full curve, poor fit]"
13,CCOC(=O)c1cnc2c(-c3ccccc3)c(C)nn2c1N,"inconclusive [inhibitor, full curve, poor fit]"
14,CCC1(c2ccccc2)NC(=O)N(CC(=O)Nc2ccccc2C(=O)NC2CC2)C1=O (stereo unspecified),"inconclusive [inhibitor, full curve]"
15,CC1(C)SCC(C(=O)O)N1C=O (stereo unspecified),"inconclusive [inhibitor, full curve, poor fit]"
16,COc1ccc(-c2coc3cc4oc(=O)cc(C)c4cc23)cc1F,"inconclusive [inhibitor, full curve, poor fit]"
17,O=C(c1n[nH]c(=O)c2ccccc12)N1CCN(Cc2ccc3c(c2)OCO3)CC1,"inconclusive [inhibitor, single point]"
18,COC(=O)c1cccc(NC(=O)c2cccc([N+](=O)[O-])c2)c1,"inconclusive [inhibitor, full curve, poor fit]"
19,Cc1ccccc1Cn1cc(NC(=O)c2noc3c2CC(C(C)(C)C)CC3)cn1 (stereo unspecified),"inconclusive [inhibitor, partial curve]"
20,CNC(=S)N(Cc1cccs1)Cc1cc2cc(OC)ccc2[nH]c1=O,"inconclusive [inhibitor, single point]"
21,CCOC(=O)c1sc(=S)n(-c2ccccc2)c1SC,"inconclusive [inhibitor, partial curve, poor fit]"
22,COc1ccc(C[C@H]2CN3C(=NC[C@@H]3C)N2CCNC(=O)CCC2CCCCC2)cc1,inactive

row,Structure (SMILES),Potency
1,Cc1ccccc1CNC(=O)CN1C(=O)C2CCCCN2c2ccc(C(=O)N3CCCC3)cc21 (stereo unspecified),inactive
2,Cc1ccc(C2=NO[C@@](CC(=O)O)(C(=O)Nc3ccc4c(c3)OCCO4)C2)cc1,inactive
3,COc1nccc(Nc2ccccc2)c1C#N,"inconclusive [inhibitor, partial curve, poor fit]"
4,Cc1ccc(OCc2cc(C(=O)NCC(C)(C)N3CCOCC3)no2)cc1C,inactive
5,CCn1c(=O)cc(SCC(=O)N2CCN(C)CC2)c2ccccc21,inactive
6,O=C(COC(=O)CCC(=O)c1cccs1)NC1CCCCC1,"inconclusive [inhibitor, single point]"
7,COc1ccccc1OCC(=O)NCCSCc1ccccc1Cl,"inconclusive [inhibitor, partial curve]"
8,Cc1ccc(NC(=O)CCOc2ccccc2)cc1S(=O)(=O)Nc1ccccc1Cl,"inconclusive [inhibitor, full curve, poor fit]"
9,COc1ccc(S(=O)(=O)N2CCN(c3ccc4nnc(-c5ccc(F)cc5)n4n3)CC2)cc1,"inconclusive [inhibitor, full curve, poor fit]"
10,COc1ccccc1N(CC(=O)NCc1ccco1)S(=O)(=O)c1ccc(C)cc1,"inconclusive [inhibitor, single point]"
11,Cc1cc(=O)n(CC(C)C)c(O)c1C#N,"inconclusive [inhibitor, full curve, poor fit]"
12,CCOc1ccc(CN2CCN(Cc3cc4ccccc4o3)CC2CCO)cc1 (stereo unspecified),inactive
13,C=CCn1c(=O)c(C(=O)Nc2ccccc2OC)c(O)c2ccccc21,"inconclusive [inhibitor, partial curve, poor fit]"
14,COc1cc(OC)cc(-c2nn[nH]n2)c1,"inconclusive [inhibitor, partial curve, poor fit]"
15,O=[N+]([O-])c1cc(C(F)(F)F)ccc1Cl,inactive
16,O=C(C1CCC(=O)N1Cc1cccnc1)N1CCN(c2ccc(F)cc2)CC1 (stereo unspecified),"inconclusive [inhibitor, full curve, poor fit]"
17,CCN1CCN(C(=O)c2cc3nc(-c4ccccc4)cc(C(F)(F)F)n3n2)CC1,"inconclusive [inhibitor, single point]"
18,C/C(=N\Nc1ccccc1[N+](=O)[O-])c1ccc(N2CCOCC2)cc1,inactive
19,O=C(NCC1(O)CCCCC1)C1CCC(=O)N(Cc2cccc(C(F)(F)F)c2)C1 (stereo unspecified),"inconclusive [inhibitor, full curve]"
20,CN(C)c1ncc(S(=O)(=O)c2ccccc2)c(-c2ccc(Cl)cc2Cl)n1,"inconclusive [inhibitor, full curve, poor fit]"
21,CCOc1ccc(S(=O)(=O)Nc2cc(F)ccc2F)c2cccnc12,"inconclusive [inhibitor, full curve, poor fit]"
22,COc1ccc(NC(=O)Nc2ccc(N3CCCC3=O)cc2)cc1OC,"inconclusive [inhibitor, partial curve]"

row,Structure (SMILES),Potency
1,Cc1ccc(NC(=O)c2cc(S(=O)(=O)N3CCc4ccccc43)cn2C)c(Cl)c1,inactive
2,O=C(CC1NCCNC1=O)Nc1ccc([N+](=O)[O-])cc1 (stereo unspecified),"inconclusive [inhibitor, full curve]"
3,Cc1ccc(S(=O)(=O)N2CCC(C(=O)N3Cc4ccccc4C3)CC2)cc1,"inconclusive [inhibitor, full curve, poor fit]"
4,Cc1c(-n2c(O)c(C3=c4ccccc4=NC3=O)sc2=O)c(=O)n(-c2ccccc2)n1C,"inconclusive [inhibitor, partial curve]"
5,c1cncc(-c2ccnc3ncnn23)c1,"inconclusive [inhibitor, full curve]"
6,NC(=O)CSc1nc2ccccc2c(=O)n1CCc1ccccc1,"inconclusive [inhibitor, partial curve]"
7,COc1cccc(-c2nc(CS(=O)(=O)CC(=O)Nc3ccc(C(C)=O)cc3)c(C)o2)c1,inactive
8,CN1C(=O)/C(=C2\SC(=S)N(CCCCCC(=O)O)C2=O)c2ccccc21,inactive
9,O=C(NCCNC(=O)c1ccc([N+](=O)[O-])cc1)c1ccncc1,inactive
10,COCCNC(=O)Cn1cc2c(n1)CCC(C)C2 (stereo unspecified),"inconclusive [inhibitor, full curve]"
11,CCCCn1nnnc1SCC(=O)NC1CCCCC1,inactive
12,Cc1ccc(C)c(S(=O)(=O)NC2CCSC2=O)c1 (stereo unspecified),"inconclusive [inhibitor, partial curve, poor fit]"
13,COCCNC(=O)c1cc2oc3ccccc3c2n1C,inactive
14,CCN1CCN(C(=O)CN2C(=O)c3ccccc3S2(=O)=O)CC1,"inconclusive [inhibitor, single point]"
15,Cc1nn(-c2ccc(F)cc2)c2nc(N)c(C#N)c(-c3cccs3)c12,"inconclusive [inhibitor, full curve, poor fit]"
16,CCCn1c2ccccc2c2cnn(CC(=O)NCCCN3CCCCC3CC)c(=O)c21 (stereo unspecified),"inconclusive [inhibitor, full curve, poor fit]"
17,CN1CCN(c2ccc(NC(=O)c3ccc(C(F)(F)F)cc3)cn2)CC1,"inconclusive [inhibitor, full curve, poor fit]"
18,COC(=O)C1=C(C)N(Cc2ccccc2)C(=NCc2cc(OC)c(OC)c(OC)c2)N[C@H]1c1ccccc1,inactive
19,COc1ccc2nc(C)cc(C(=O)O)c2c1,"inconclusive [inhibitor, full curve, poor fit]"
20,CCCn1cnc2cc(NCc3cccc(OC)c3)ccc21,"inconclusive [inhibitor, full curve]"
21,N#Cc1ccccc1OCC(=O)N1CCN(S(=O)(=O)c2ccc(Cl)cc2)CC1,inactive
22,CCOC(=O)c1c(C)[nH]c2c1cc(O)c1ccccc12,inactive
